# Results published in the supplement of paper PMC11417369.
# ± gives the standard deviation of the averaged measurements. The list shows a part of the results.
# System: PfAP2-EXP AP2 domain (GST-tagged)
# Test: gcPBM binding intensity (ln(normalized median fluorescence intensity)); higher = stronger DNA binding
# How it was run: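 Each value is the highest Masliner-normalised natural-log median intensity across replicate spots of either orientation of a probe. The probes were primer-extended double-stranded 36-bp intergenic genomic sequences on an Agilent 4 × 180k array, alongside negative controls, exposed for 1 h to GST-tagged P. falciparum DNA-binding domains expressed in E. coli. Bound protein was picked up with Alexa488 anti-GST antibody and scanned at 488 nm.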
row,Sequence,gcPBM binding intensity (ln)
1,ATTTATCAATAAAATGCACACACTGTAATATTATTA [CACACA_site3976],8.52 ± 0.42
2,AAACCACAAAATTTTTTATATATGACCAATACATAG [CACACA_negctrl_site277],8.54 ± 0.35
3,TTCCATATAATTACATGTACACATTTTGAATAATAT [XGTACX_site3692],8.89 ± 0.33
4,ACAGATATACATAAAAAAAAAATAATTTTACATATA [CACACA_negctrl_site929],8.2 ± 0.42
5,ATATATATGTATGTATGTACATATTTGAATTTATTT [XGTACX_site8470],8.73 ± 0.64
6,AGCACAGACGGACACACACACATATATATATATATA [CACACA_site4341],10.1 ± 0.35
7,TTTGTTTTTTCTTTTTGTACATATACAAGATACGTA [XGTACX_site2309],8.85 ± 0.54
8,ATGTATGTATAATATACACACTCACAAGCATTCAAA [CACACA_site4306],8.43 ± 0.4
9,GTATATATTCATATGGAAAATAAAGGAGAAAACAAG [TGCATGCA_negctrl_site220],9.18 ± 0.44
10,ACCCAACATATGTGTACACAGAAAATAAATATAATA [CACACA_site5901],9.11 ± 0.53
11,GTGTTTTTTTTAGATTGTACATATATATATATATAT [XGTACX_site4562],10.3 ± 0.33
12,TTTTGTAATTCTCTTCATATAATTTATATATATATA [CACACA_negctrl_site1825],9.73 ± 0.18
13,ATGGTAGTGATTAAAAGTACACGTAATTGTAAAAAT [XGTACX_site387],8.79 ± 0.41
14,ATATATATACATACATACCTATGTATATGTGTAATT [GTGCAC_negctrl_site50],8.5
15,TAAACAACTTATAAATGTACACATATTTTAATTACC [XGTACX_site5409],8.46 ± 0.22
16,TAAAAAAAAAAAAATACACACACACCGATATATATA [CACACA_site8498],8.66 ± 0.54
17,AATAAAAACTAAACATGTACGCACATATATATATAT [XGTACX_site8096],9.97 ± 0.26
18,TAAGTGCATGAGATATGTACATATATAAAATATATA [XGTACX_site3294],8.68 ± 0.33
19,TCATAGTCTTAATGACTACACACCTAACTATGCATG [CACACA_site1839],8.36 ± 0.33
20,ATTTTTTAAAAAGTAACACACACTCTTATAAATAAC [CACACA_site7668],8.62 ± 0.35
21,AAAGTAAAAATATACTGTACAAATTTTTTCCCCTCT [XGTACX_site171],8.48 ± 0.49
22,AAAGAAAGCACATACACACACAAAAAAAAAAAAGAA [CACACA_site776],8.58 ± 0.49

row,Sequence,gcPBM binding intensity (ln)
1,GATGCACTTTAAAAATGTACTTATACCTTTAATTGT [XGTACX_site6395],8.38 ± 0.35
2,AAACAAAAAAAAAAAAAAAAAAAAAAAAAAAAAAAA [GTGCAC_negctrl_site254],7.89 ± 0.28
3,ATATTTATATACAAATGTACGCATATAATATATATA [XGTACX_site1232],8.54 ± 0.16
4,AAAAAAATATTATAATATATATATATATATATATAT [GTGCAC_negctrl_site399],10.1 ± 0.28
5,AGAGATTATAAAATATGTACTAAATATTAAATCTTA [XGTACX_site7050],8.17 ± 0.49
6,AGGACTAATATTTGAACACACATATAATATATACAT [CACACA_site3998],8.48 ± 0.5
7,ATAGAATCTGGTAGCTGTACGAGTCGTAGAGTGCAG [XGTACX_site2026],8.91 ± 0.38
8,AATATATACATATATGTACACACATTACAGATGTAC [CACACA_site8227],8.61 ± 0.36
9,TTTTTCTTGAATCGAAGTACTTAGGAGGGGATATTT [XGTACX_site2862],9.28 ± 0.69
10,ACACAATATATATATTGTACATACACATATTTACTA [XGTACX_site1872],8.75 ± 0.18
11,ATAACGACCTAGACGTGTACATACAAAGGAATGAAA [XGTACX_site4870],8.88 ± 0.42
12,CATACACATAGACACACACACATATATACCTATATA [CACACA_site6644],8.65 ± 0.4
13,GAAATGTATATTTTTACATGCAAATAAAATATATAA [TGCATGCA_site439],8.94 ± 0.24
14,GAATATAAACATATTACACACATCTATAGGTACATT [CACACA_site6983],8.54 ± 0.36
15,GTGATTTAATTGTGTTGTACATATTTATAAATAAAA [XGTACX_site8966],8.72 ± 0.36
16,AAAAAAAAAAGAAACACACACATTTGTATTTAATAT [CACACA_site5184],8.31 ± 0.42
17,ATTCTATATACACGCACACACACTTATATATATATA [CACACA_site3322],10 ± 0.28
18,TTATTATTATATGAATGTACTTAAAAATACATTTTG [XGTACX_site2959],8.19 ± 0.33
19,CCCTTTTCTAAATATTGTACGTATAAATTATATTAC [XGTACX_site7676],8.96 ± 0.18
20,AAAAAGAAAAAACGAAGTACAATTATAAGATTATAT [XGTACX_site410],8.81 ± 0.56
21,TTGTTCTTTTTTTTTTTATTTTTTAATTTGAAAAGA [CACACA_negctrl_site209],8.43 ± 0.52
22,GTACAGATAAATATTACACACATTTTCATTTTTAAC [CACACA_site5140],8.58 ± 0.34

row,Sequence,gcPBM binding intensity (ln)
1,TATGAAAAATATCTTTGTACTTAGAAATATATACAC [XGTACX_site5393],8.38 ± 0.26
2,TATGTGCCAAGACACACACACATATTTATATTTATA [CACACA_site6360],8.54 ± 0.36
3,ATATTTATGTAATGTTTGATTTTTTTTTTATGTGTG [CACACA_negctrl_site1422],8.29 ± 0.41
4,ACATATACATACATATGTACATATACATAAATATAT [XGTACX_site1285],8.59 ± 0.35
5,CTATACAATAAAAATTGTACATACATATATGTTATA [XGTACX_site5309],8.37 ± 0.37
6,AATTTTTCTTTTTTTTGTACAGAATATATATTTTAT [XGTACX_site1419],8.71 ± 0.42
7,ATAATATGTTATTAAGTGCATATTAATTATTATTAT,8.485 ± 0.049
8,TATATATATCTTTTGGTGCATATTTCGAATATATGT,9.01 ± 0.12
9,TCGTTATCCATCTTCACACATATATATAGTAATATA [CACACA_site5492],9.03 ± 0.51
10,TATATATTTACATATTGTACAATATAAAAATAATTA [XGTACX_site19],8.34 ± 0.29
11,AAAAAAAAAATTGAAAGTACACAAATGGGGTATTAT [XGTACX_site3960],8.75 ± 0.35
12,TACTGTTTAAAATATACACACATAATCAAAAAAAAA [CACACA_site2510],8.37 ± 0.55
13,AATAAGCAGAAACACACACACAAAAAAAAAAAAAAA [CACACA_site719],8.07 ± 0.57
14,TATGTATAAATATTAACACACAAAAAAAAAAAAAAA [CACACA_site6938],8.28 ± 0.43
15,GTTTGATAACACCTACAAACTCTTTTTTTTTTTTTT [CACACA_negctrl_site1134],8.41 ± 0.53
16,ATATAAACAAAGCAGTGCACGTAAACAAAACATATA [CACACA_negctrl_site1076],9.51 ± 0.3
17,TACGAAAGGTAATATTGTACATTACAAAATTTTATA [XGTACX_site5512],8.43 ± 0.36
18,AAATTTATAAATTAAAGTACATATTTCTTGAATATT [XGTACX_site859],8.34 ± 0.48
19,TATAGATACACTTTGTGTACATAAAAATTGTATTAA [XGTACX_site7137],8.32 ± 0.26
20,TATTAAATTATATAGACACACATTATGTATATATAT [CACACA_site345],8.41 ± 0.29
21,AAATGAAGATTTAAATGTACGAGAGGGTATACAAAT [XGTACX_site5075],9.04 ± 0.48
22,CATAATATTAAATCAGTGCAAATATACAGAATAAAT [GTGCAC_site9786],9.02 ± 0.26

row,Sequence,gcPBM binding intensity (ln)
1,GACTTCTCCATATACACACACCAACAAATATAAAAA [CACACA_site7331],8.82 ± 0.46
2,ATATAATTTAATTTCTGTACATAAGAGAAAAAACAA [XGTACX_site4865],8.88 ± 0.45
3,AACATATACTGTTTATGTACACATTGTTATATTAAT [XGTACX_site4276],8.65 ± 0.39
4,TTATGCAAAAATAAATCAATATGTTGATATGTAAAT [GTGCAC_negctrl_site128],8.44 ± 0.28
5,TACATTTTATGCATTTGTACACAAATAAATAAATAA [XGTACX_site2652],8.37 ± 0.37
6,TTTTTTTTTTTTTATACACACATTAAAATAAAAAAG [CACACA_site3946],8.35 ± 0.44
7,AAAGAAAAAAAAAAAACACACAAAAAAAATCAAAAT [CACACA_site2871],8.44 ± 0.7
8,CTCTTCCTTAATTTTTGTACTTAAAATTTTTTTTTT [XGTACX_site1628],8.9 ± 0.4
9,ATATCAATTTTTGGTGGTACGTAGGAAGTTTCAGAA [XGTACX_site6881],8.91 ± 0.43
10,ACTTTAAAAAGATTCACACAAAATATATAAAAATAT [CACACA_site5334],8.28 ± 0.4
11,AAAAGTTGTATTTGCACACATAAAAAAAAGATATTA [CACACA_site3840],8.46 ± 0.38
12,AACCCCAAGCCGTACTGTACATATATTTTTATTTTA [XGTACX_site142],9.06 ± 0.69
13,AAATTCAAACAAATTACACACATTTTTTTTTAATTT [CACACA_site3596],8.71 ± 0.47
14,AAAAAAAAAAAAAAATGTACATATATATTTATATAT [XGTACX_site229],8.28 ± 0.18
15,TCAAAGGAATTTTTATGTACATATAAACTTTATTCT [XGTACX_site3432],8.59 ± 0.45
16,TATTATTCTACTATTATATTCTATATTATTTATAGT [CACACA_negctrl_site499],8.44 ± 0.39
17,ATATATCTATATAGAAATGTATATATATATATGTGT [TGCATGCA_negctrl_site349],8.46 ± 0.3
18,TAAAATCAATGTTCTTGTACTTAAAATGTTTGTTCT [XGTACX_site5490],8.36 ± 0.39
19,AAAATTAAATTATTTACACACAATATTAAAATATTT [CACACA_site3244],8.11 ± 0.45
20,AGTATAAAATTTGGTTGTACATTTTTAAAAAAATTA [XGTACX_site7519],8.38 ± 0.35
21,AAATAAATTTGACCAGTGCAATAACTTTGTATACCT [GTGCAC_site9446],8.67 ± 0.085
22,TATAATATAAAAAAAAGTACACGAATTTTTTTTCAG [XGTACX_site6105],8.38 ± 0.4
